Measured values: PubChem BioAssay AID488969 (Vanderbilt High Throughput Screening Facility, 2010)
Whole data set: some 110,000 compounds, median “z-score” near -0.1, cut for the highest 2% near 2. The list shows a part of the results. Calls of active or inactive are those of the source.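 The calls were made as follows: active = z-score in the third read window above 3 or below -3; inactive = the rest.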

Target: Metabotropic glutamate receptor 8 (Rattus norvegicus) (UniProt P70579)
Test: mGluR8 Gi/Go-coupled signaling modulation – cell-based, rat, thallium flux, HTS, primary screen (AID 488969)
Conditions: HEK293 rat mGluR8, GIRK (G protein-gated inwardly rectifying potassium channel) thallium flux, FluoZin2; at 10 µM; stronger effect = higher value; submaximal glutamate (EC20) added with thallium

Sequence of UniProt P70579 (P70579 whole entry, looked up): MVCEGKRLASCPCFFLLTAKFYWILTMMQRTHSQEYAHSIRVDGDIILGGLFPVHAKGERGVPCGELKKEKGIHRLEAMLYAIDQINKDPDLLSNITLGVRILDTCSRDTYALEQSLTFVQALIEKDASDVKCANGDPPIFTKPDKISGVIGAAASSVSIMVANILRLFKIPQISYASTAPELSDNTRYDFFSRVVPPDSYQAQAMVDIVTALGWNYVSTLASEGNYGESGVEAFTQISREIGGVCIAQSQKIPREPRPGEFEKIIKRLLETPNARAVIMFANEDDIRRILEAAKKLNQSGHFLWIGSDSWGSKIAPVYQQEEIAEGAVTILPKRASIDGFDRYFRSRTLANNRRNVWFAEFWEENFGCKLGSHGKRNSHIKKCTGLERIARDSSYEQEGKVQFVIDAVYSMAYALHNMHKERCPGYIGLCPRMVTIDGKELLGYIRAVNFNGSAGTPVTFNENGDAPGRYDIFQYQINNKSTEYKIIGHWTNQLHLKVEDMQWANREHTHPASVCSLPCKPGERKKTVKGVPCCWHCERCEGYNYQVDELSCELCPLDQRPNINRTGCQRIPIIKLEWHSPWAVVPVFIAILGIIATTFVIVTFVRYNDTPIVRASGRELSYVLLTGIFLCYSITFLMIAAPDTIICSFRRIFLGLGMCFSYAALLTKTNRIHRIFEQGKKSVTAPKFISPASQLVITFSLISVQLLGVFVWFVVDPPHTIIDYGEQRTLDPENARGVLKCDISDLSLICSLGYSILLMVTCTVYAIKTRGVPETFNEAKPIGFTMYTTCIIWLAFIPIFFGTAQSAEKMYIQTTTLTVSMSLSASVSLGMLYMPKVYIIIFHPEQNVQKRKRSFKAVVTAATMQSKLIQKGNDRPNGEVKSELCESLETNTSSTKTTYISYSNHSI

SMILES	z-score
O=c1[nH]c2ccc(Cl)cc2c(=O)n1Cc1ccco1	active: 5.27
NS(=O)(=O)c1cccc(NC(=O)COC(=O)c2cc(-c3ccc(Cl)cc3)nc3ccccc23)c1	-0.131
COC(=O)c1ccc2c(c1)C(=O)/C(=C/c1ccc(O)cc1)O2	0.0618
COc1ccccc1NC(=O)c1ccccc1-c1nc(-c2ccccc2OC)no1	-0.893
CCOC(=O)CSc1nnc(CNC(=O)c2ccc(S(=O)(=O)N3CCCC3)cc2)n1C	-0.114
O=C(Nc1ccc(Cl)c(Cl)c1)N(CCCN1CCOCC1)Cc1cccs1	-1.73
Cc1ccc(SCC(=O)c2sc(-c3ccccc3)nc2C)cc1	0.0558
C/C=C(\C)CN1CCN(c2ccccc2)CC1	-0.218
CNC(=O)c1sccc1-n1cccc1	-0.172
O=C(O)/C(=C/c1cccnc1)NC(=O)c1ccccc1	-0.103
O=C(CO)N/N=C/c1cccc(Cl)c1Cl	-0.381
Cc1ccc(C)c(N2CCN(C(=O)c3csc4ccccc34)CC2)c1	-0.223
CCOc1cc(C(=S)N2CCC(O)CC2)ccc1OS(=O)(=O)c1ccc(Br)cc1	0.875
CCOC(=O)N1CCN(c2c(Nc3ccc4c(c3)OCCO4)c(=O)c2=O)CC1	0.153
CCC1=NN2C(=N)/C(=C\c3ccc(SCc4ccco4)o3)C(=O)N=C2S1	-0.171
CCc1ccccc1NC(=O)CSc1nc2n[nH]c(C)c2c(=N)n1-c1cccc(OC)c1	0.747
CC(C)CC(=O)Nc1ccccc1Oc1ccccc1	-0.262
Cc1cccn2cc(CNC(=O)c3ccco3)nc12	-0.251
COCCNC(=O)CN(c1cc(Cl)ccc1OC)S(C)(=O)=O	0.522
S=C(Nc1ccc(Cl)c(Cl)c1)NN1CCOCC1	-0.308
CCn1c(C)nc2cc(C(=O)NNS(=O)(=O)c3ccc(C)c(C)c3)ccc21	0.342
CC1(C(=O)NC2CCCC2)CCC(=O)N1Cc1ccccc1 (stereo unspecified)	-0.199
CCCNCc1cc(OC)c(OCCC)cc1Cl	0.0157

SMILES	z-score
COc1ccc(CNC(=O)c2ccc(NS(=O)(=O)c3c(C)noc3C)cc2)cc1	-0.283
O=C(CSc1nnnn1-c1ccc2c(c1)OCO2)NCc1ccccc1	-0.347
O=S(=O)(c1ccc2c(c1)OCCCO2)N1CCNCC1	0.378
CCCc1ncc(C(O)c2cccc3ccccc23)n1C (stereo unspecified)	0.327
O=C(CSCc1ccccc1)N1CCN(c2cccc(C(F)(F)F)c2)CC1	-0.145
COc1ccc(OC)c(NC=C2C(=O)OC3(CCCCC3)OC2=O)c1	-0.13
Cc1ccc(NS(=O)(=O)c2cc(NC(=O)C(C)Oc3ccccc3)ccc2C)c(C)c1 (stereo unspecified)	-0.313
Clc1ccc(C[n+]2cc(-c3ccccc3)n3c2CCC3)cc1Cl	0.393
CCN(CC)S(=O)(=O)c1ccc(NC(=O)CN(c2ccc(OC)cc2OC)S(C)(=O)=O)cc1	-0.467
CCN1CCN(C(c2cccnc2)c2cc(Cl)c3cccnc3c2O)CC1 (stereo unspecified)	-0.0956
COc1cc(C(=O)NCC(=O)N/N=C(/C)c2cccs2)cc(OC)c1OC	0.296
OC1(c2cccc(F)c2)CCN(Cc2ccncc2)CC1	-0.584
COC(=O)c1sccc1N/N=C(\C)c1ccc(F)c(Cl)c1	-0.08
Cc1ccc2c(c1)C1(SCCS1)C(=O)N2	-0.0782
COC(=O)c1cc2c(C)cc3ccc(C)cn3c-2c1C(=O)OC	-0.336
CCCC1(C(=O)OCC)NC(c2ccc(N(C)C)cc2)C2C(=O)N(c3ccc(F)cc3)C(=O)C21 (stereo unspecified)	-0.0864
CCC(=O)OCCNc1cc(Sc2nc3ccccc3[nH]2)c2nonc2c1[N+](=O)[O-]	-0.718
S=C(NCc1ccc(Cl)cc1)Nc1ccccc1Cl	0.0964
Cc1ccc(CN2C3=NC(=O)CN3c3ccccc32)cc1	-0.626
Cc1oc(-c2cccs2)nc1CS(=O)CC(=O)NCCc1ccccc1 (stereo unspecified)	-0.142
COc1ccc(S(=O)(=O)N2CCCCCC2)cc1N(C)S(=O)(=O)c1ccccc1	-0.328
CSc1cccc(NC(=O)C2CCN(S(=O)(=O)c3ccc(F)cc3)CC2)c1	1.67
COC(=O)c1sccc1NC(=O)CN(C)NS(=O)(=O)c1ccc([N+](=O)[O-])cc1	0.0408

SMILES	z-score
Cn1c(CN2CCOCC2)nc2cc(NC(=O)c3ccc(F)cc3)ccc21	0.296
Cc1ccccc1OCC(O)Cn1c(NCc2ccccc2)nc2c1c(=O)[nH]c(=O)n2C (stereo unspecified)	0.0947
CCOC(=O)/C(=C\c1ccc(OC(F)F)cc1)C1=Nn2c(nnc2-c2ccc(Cl)cc2)SC1	-0.329
Fc1cccc(-c2oncc2-c2nnnn2-c2ccc(Cl)cc2)c1	-0.427
CCn1cc(S(=O)(=O)CC(=O)Nc2cc(C)ccc2C)c2ccccc21	2.61
COc1ccc(-c2oc(NC(=O)CSc3nncn3C)c(C#N)c2-c2ccc(OC)cc2)cc1	-0.382
COc1ccc(/C=C/C(=O)Oc2ccc(/C=N/NC(=O)c3ccccc3)cc2)cc1OC	-0.147
CC(=O)N1N=C(c2ccc(Br)cc2)OC1(C)CC(=O)Nc1ccccc1 (stereo unspecified)	-0.117
COC(=O)c1cn(Cc2cccc(C)c2)nn1	1.97
Cc1ccc2c(Cl)c(C)c(N3CCCC3)nc2n1	-0.464
N#Cc1ccsc1NC(=O)CSc1nnc(-c2ccccc2)o1	0.151
O=C(CSc1nc2cccnc2n1Cc1ccccc1)NC1CCCCC1	-0.637
CCCC(=O)Nc1ccc(C(=O)NNC(=O)c2cccs2)cc1	-0.0751
Cn1c(SCC(=O)NNC(=O)Cc2ccccc2)nnc1-c1ccc(Cl)cc1	-0.126
CCCCNS(=O)(=O)c1ccc(NS(=O)(=O)c2c(C)cc(C)cc2C)cc1	1.12
Cc1noc2ncnc(Sc3c(Cl)cccc3Cl)c12	-0.112
COc1cc(OC)c(C2=NOC(C(=O)O)C2)cc1Cl (stereo unspecified)	0.212
CC(=O)Nc1ccc(N2CCc3c(C)c(C#N)c4nc5ccccc5n4c32)cc1	-0.214
COC(=O)c1c(C)oc2cc(Br)c(OCC(=O)C(C)(C)C)cc12	0.0323
COC(=O)C(CCSC)NC(=O)C(NC(=O)C1CCC(C)CC1)C(C)C (stereo unspecified)	-0.317
C=CCn1c(SCC(=O)Nc2ccc3c(c2)OCO3)nc2ccccc2c1=O	0.212
CCc1c(C(=O)NC2CCCC2)csc1C	-0.231
CCCS(=O)(=O)N1CCCC(C(=O)NCCCN2CCN(c3cccc(Cl)c3)CC2)C1 (stereo unspecified)	-0.412

SMILES	z-score
COC(=O)c1cc2ccccc2c(-c2c(OC)c(C(=O)OC)cc3ccccc23)c1OC	-0.118
Nc1ccc(C2CCCc3nonc32)c2nonc12 (stereo unspecified)	-0.157
COCCOc1cc(N2C(=O)CSCC2=O)c(Cl)cc1Cl	0.736
CC(=O)c1c(C(C)=O)c(C)n(Cc2ccc(Cl)cc2)c1C	-0.326
CCOC(=O)C1=C(C)NC(=O)NC1c1ccc(NC(C)=O)cc1 (stereo unspecified)	-0.184
CCN(CC(=O)Nc1c(C(=O)OC)[nH]c2ccccc12)c1ccc2c(c1)OCO2	-0.682
CCN(CC)C(=O)CSc1nc(N)c(C#N)c(-c2cccs2)c1C#N	0.0946
Cc1ccc(/C=N/NC(=O)Cc2c[nH]c3ccccc23)c(C)c1	-0.215
Cc1ccc(CCN2CC(C(=O)O)CC2=O)cc1 (stereo unspecified)	-0.0312
CN(Cc1ccccc1)c1ccc(N2C(=O)CCCC2=O)cc1[N+](=O)[O-]	-0.202
CCOc1ccc(OCc2ccc(C(=O)Nc3ccc(Cl)cn3)o2)cc1	0.0535
NS(=O)(=O)c1ccc(Nc2ncccc2[N+](=O)[O-])cc1	0.143
CC(C)(O)C#Cc1ccc(C(=O)N2CCCC2C(=O)O)s1 (stereo unspecified)	0.737
CN(CCOC(=O)c1ccco1)Cc1ccccc1	-0.11
O=C(Nc1ccc(F)cc1)c1ccc(S(=O)(=O)NCC2CCCO2)cc1 (stereo unspecified)	0.804
CCOc1ccc(-n2nc3c(=O)[nH]nc(C)c3c2C)cc1	-0.125
Cn1cccc1/C=C1\SC(=O)N(c2ccc(O)cc2)C1=O	-0.282
CSc1ccc(Cl)c(C(=O)NC2CCCC2)c1	-0.0722
COc1ccc(-c2nc(C#N)c(N3CCC(C(N)=O)CC3)o2)cc1	-0.0894
O=C(C1CCN(S(=O)(=O)c2ccc(F)cc2)CC1)N1CCOCC1	0.0477
Cn1c(COc2ccccc2)nnc1SCc1nc2ccccc2[nH]1	-0.0593
CCOC(=O)/C=C1\NC2(CCCCC2)Cc2cc(OC)c(OC)cc21	0.523
CC1CN(S(=O)(=O)c2cn(C)c(=O)n(C)c2=O)CC(C)O1 (stereo unspecified)	0.143

SMILES	z-score
CCSc1nc(N)c2c(C)c(C)sc2n1	-0.0599
O=C(NCc1ccccn1)c1cccs1	0.202
O=C(c1cc2nc(-c3ccco3)cc(C(F)(F)F)n2n1)N1CCCCCC1	-0.907
COc1ccc(C(=O)N2CCOCC2)cc1Br	0.2
CNS(=O)(=O)c1ccc2c(c1)NC(=O)C1CCCN21 (stereo unspecified)	1.46
O=C(O)C1C2C=CC3(O2)C1C(=O)N1c2ccccc2COC13 (stereo unspecified)	0.248
O=Cc1c(N2CCN(c3cccc(Cl)c3)CC2)nc2ccccn2c1=O	1.04
C=CCN1C(=O)NC(c2ccc(OC)cc2)(C(F)(F)F)S/C1=C(\C#N)c1nnc(N2CCOCC2)n1-c1ccccc1 (stereo unspecified)	-0.46
Nc1nc(SCc2nnc(SCC(=O)O)n2-c2ccccc2)nc2sc3c(c12)CCCC3	0.0376
Cc1ccc2nc(-c3ccc(NC(=O)CN4C(=O)c5ccccc5C4=O)cc3)sc2c1	-0.329
COC(=O)c1cc(OC)c(OC)cc1NC(=S)Nc1cc(Cl)ccc1OC	-0.0863
CCOc1cc(C(=O)NC)cc(OCC)c1OCC	0.62
O=C(NCc1cccs1)c1cc2c(s1)CCCC2	-0.28
COc1ccccc1CNC(=O)C1CCN(S(=O)(=O)N2CCCCC2)CC1	-0.225
CSc1ccccc1NC(=O)CN(c1ccccc1)S(=O)(=O)N(C)C	-0.33
COc1ccc(-c2nc(CCNC(=O)c3ccco3)cs2)cc1OC	-0.532
Nc1c(NCc2ccccc2)c(=O)[nH]c(=O)n1Cc1ccccc1	-0.136
COc1ccc(CC(=O)NCc2nnc(SCC(=O)Nc3nccs3)n2-c2ccccc2)cc1	0.15
COc1ccc(NC(=O)C2CCN(S(=O)(=O)c3cccc4cccnc34)CC2)cc1	0.656
